# PubChem BioAssay AID488969 (Vanderbilt High Throughput Screening Facility, 2010)
# Whole data set: some 110,000 compounds, median “z-score” near -0.1, cut for the highest 2% near 2. The list shows a part of the results. The source made the active and inactive calls.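 How the source made its calls: active means z-score in the third read window above 3 or below -3; inactive means the rest.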
# Target: Metabotropic glutamate receptor 8 (Rattus norvegicus) (UniProt P70579)
# Test: rat mGluR8 modulators via GIRK flux, primary screen, cell-based, thallium flux, HTS (AID 488969)
# Conditions: HEK293 rat mGluR8, GIRK (G protein-gated inwardly rectifying potassium channel) thallium flux, FluoZin2; at 10 µM; stronger effect = higher value; submaximal glutamate (EC20) added with thallium
# Sequence of UniProt P70579 (P70579 whole entry, looked up): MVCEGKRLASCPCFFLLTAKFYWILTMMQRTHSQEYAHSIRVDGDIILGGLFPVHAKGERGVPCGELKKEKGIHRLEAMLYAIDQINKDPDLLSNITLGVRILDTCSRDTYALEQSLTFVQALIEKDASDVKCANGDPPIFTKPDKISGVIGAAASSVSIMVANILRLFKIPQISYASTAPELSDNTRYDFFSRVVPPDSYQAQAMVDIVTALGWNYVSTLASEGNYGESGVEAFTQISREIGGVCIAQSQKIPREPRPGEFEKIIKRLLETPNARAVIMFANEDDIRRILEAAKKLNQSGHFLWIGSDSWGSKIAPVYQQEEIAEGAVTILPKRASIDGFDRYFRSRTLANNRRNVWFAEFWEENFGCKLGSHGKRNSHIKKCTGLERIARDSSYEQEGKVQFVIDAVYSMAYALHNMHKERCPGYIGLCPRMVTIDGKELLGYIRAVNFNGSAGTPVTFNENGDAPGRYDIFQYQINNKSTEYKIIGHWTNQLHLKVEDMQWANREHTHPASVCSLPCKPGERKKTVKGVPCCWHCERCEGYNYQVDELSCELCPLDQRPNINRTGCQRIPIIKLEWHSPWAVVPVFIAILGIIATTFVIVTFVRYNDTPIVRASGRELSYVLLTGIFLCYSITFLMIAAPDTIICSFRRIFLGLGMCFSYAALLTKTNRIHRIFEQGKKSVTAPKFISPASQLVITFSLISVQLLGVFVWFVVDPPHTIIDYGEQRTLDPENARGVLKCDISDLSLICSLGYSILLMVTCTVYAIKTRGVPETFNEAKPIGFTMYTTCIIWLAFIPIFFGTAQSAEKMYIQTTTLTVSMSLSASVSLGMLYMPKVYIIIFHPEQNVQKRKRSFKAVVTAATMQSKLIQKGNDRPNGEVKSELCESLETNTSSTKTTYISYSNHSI
row,Compound,z-score
1,CN(CCNC(=O)c1cn(C)c2ccc(S(=O)(=O)N3CCCC3)cc2c1=O)CCc1ccccc1,-0.305
2,CSC1=NCCN1C(=O)Cc1ccc(F)cc1,0.756
3,CC(/C=C/C=C/c1ccccc1)=N/NC(=O)CNc1ccc(C)cc1,-0.494
4,CCOc1ccc(/C=c2\sc3nc(-c4ccco4)nn3c2=O)cc1OCC,-0.218
5,O=C(Nc1ccc(F)cc1)c1ccc(COc2ccccc2)cc1,0.314
6,Cc1cc(NS(=O)(=O)c2ccc(NC(=O)c3cc(-c4ccccc4Cl)nc4ccccc34)cc2)no1,-1.51
7,COCCn1c(=NC(=O)c2cccs2)sc2cc(NC(C)=O)ccc21,-0.0102
8,Cc1cc(C)nc(NS(=O)(=O)c2ccc(NC(=O)c3ccc(S(=O)(=O)N4CCOCC4)cc3)cc2)n1,-0.0492
9,Cn1c(SCC(=O)N/N=C/c2cccs2)nc2ccccc21,-0.158
10,CCCC1=C(C(=O)OCC)C(c2c(C)nn(-c3ccccc3)c2Cl)C(C#N)=C(N)O1 (stereo not drawn),-0.587
11,CCOc1cc(/C=C/C(=O)c2ccc(O)cc2)ccc1OCC(=O)N(C)C,-0.134
12,CCn1c(COc2ccccc2C)nnc1SCC(=O)Nc1ccc2c(c1)OCCO2,0.604
13,c1cc2c(cc1C1CCCN1)OCCCO2 (stereo not drawn),-0.219
14,Cc1ccccc1OCc1nnc(SCC(=O)Nc2ccc3nc(SCC(=O)NC(C)(C)C)sc3c2)n1C,-0.163
15,CC1=C(C(=O)N2CCCCC2)C(c2cccs2)C2=C(CCCC2=O)N1 (stereo not drawn),0.187
16,O=C(O)C1CCCCC1C(=O)Nc1cccc(Cl)c1Cl (stereo not drawn),0.0879
17,CCN(C(=O)c1cc2ccccc2oc1=O)c1ccccc1,0.0722
18,Cc1ccc2oc(-c3ccccc3C(=O)O)cc(=O)c2c1,-0.04
19,Cc1cccc(NC(=O)CSc2nnc(Cn3cnc4ccccc43)o2)c1,-0.219
20,CCOc1ccc(C(C)(N)C(=O)O)cc1 (stereo not drawn),0.101
21,Cc1ccc(N2C(=O)C(Cc3ccccc3)NC2=S)cc1 (stereo not drawn),0.815
22,S=C1COC(c2ccccc2)N1c1ccccc1 (stereo not drawn),1.17
23,Cc1ccc(-n2ncc3c(NCCCOC(C)C)ncnc32)c(C)c1,0.0495

row,Compound,z-score
1,O=C(CN1CCC(n2nnc3cc(F)ccc32)CC1)N1CCc2ccccc2C1,-0.899
2,Cc1ccc(CC2CC(=O)N(c3nc4ccccc4n3C)C2=O)cc1 (stereo not drawn),-0.156
3,COc1ccc(-n2nc(C(=O)N3CCC(C#N)CC3)c3c4ccccc4n(C)c3c2=O)cc1,0.258
4,CCn1c(N)c(C(=O)NCc2ccco2)sc1=S,active: 4.44
5,Cc1ccc(C(=O)N2CCC(C)CC2)cc1C,-0.0216
6,Cc1c(NC(=O)Cc2ccccc2)cccc1C(=O)NN1C(=O)c2ccccc2C1=O,-0.321
7,Cc1cc(C(=O)C(C)OC(=O)C2=NNC(=O)CC2)c(C)n1-c1ccc(OC(F)F)cc1 (stereo not drawn),-0.192
8,Cc1cc(C)nc(NC2=NCC(=O)N2c2ccccc2)n1,-0.36
9,CCOc1ccc(NC(=O)c2cc3n(n2)C(C(F)(F)F)CC(c2ccco2)N3)cc1 (stereo not drawn),0.00129
10,COc1ccc(CCN=C(N)NS(=O)(=O)c2ccc3ccccc3c2)cc1,-0.0515
11,COc1ccccc1N1CCN(C(=O)c2oc3cc(C)c(C)cc3c2C)CC1,0.102
12,COCCN(C(=O)Nc1ccccc1)c1ccccc1C,-0.0144
13,Cc1ccc(-c2nc(N3CCOCC3)sc2C(=O)N2CCCCC2)cc1,-0.188
14,COc1ccc(/C=C(/C#N)S(=O)(=O)c2ccc(C)cc2)cc1,-0.481
15,Cc1nnc(N2CCOCC2)c2ccccc12,0.279
16,COn1c(=O)c(-c2cccs2)[n+]([O-])c2ccccc21,1.16
17,COc1ccc(N(CC(=O)NC2CCCC2)C(=O)Cn2nnc(-c3ccc(F)cc3)n2)cc1OC,0.0387
18,CCN1CCN(CC2CC3C=CC2C3)CC1 (stereo not drawn),-0.713
19,O=C(c1ccc(Cl)cc1)c1cnc2ccccn12,-0.0464
20,Cc1ncc(N=Nc2ccccc2)c(-c2ccccc2)n1,-0.305
21,O=C(Nc1ccccc1N1CCCC1)c1cc2ccccc2o1,-0.49
22,CCN(c1cccc(C)c1)S(=O)(=O)c1ccc2c3c(cccc13)C(=O)N2,0.342
23,O=C(NCCCN1CCOCC1)C(=O)NCC1CCCO1 (stereo not drawn),-0.101

row,Compound,z-score
1,COCCn1nnnc1C(C(C)C)N(Cc1cccnc1)Cc1ccccc1Cl (stereo not drawn),0.0403
2,COc1ccc(NC(=O)CSc2nc3c(c(=O)n2-c2ccccc2OC)SCC3)cc1,-0.282
3,CC(C)C(NC(=O)C1CCCCC1)C(=O)Nc1ccc2c(c1)OCCO2 (stereo not drawn),0.226
4,N#Cc1nc(-c2ccc(OCc3ccc(Cl)cc3)cc2)oc1N1CCOCC1,0.132
5,C=CCN1C(=NC(=O)CCC(=O)O)SC2CS(=O)(=O)CC21 (stereo not drawn),0.00517
6,Cn1c(=O)c(NCCO)c2c3c(cccc31)C(=O)c1ccccc1-2,-2.23
7,CCCCn1c(SCn2nnc3ccccc3c2=O)nc2cc(S(N)(=O)=O)ccc21,-0.835
8,O=C(COC(=O)Cc1ccc(Br)cc1)NC12CC3CC(CC(C3)C1)C2,-0.0384
9,CCN(CC)C(=O)CSc1nnc(-c2ccc(F)cc2)n1N,0.0557
10,CC(=O)NCCC(=O)Nc1nc(C)c(Cc2ccc3c(c2)OCO3)s1,-0.403
11,Cc1ccc(N=Cc2c(O)n(-c3ccc4c(c3)OCO4)c(=O)c3ccccc23)cc1,-0.43
12,O=S(=O)(NCCOc1ccccc1)c1ccc2ccccc2c1,0.0704
13,CCOc1cccc(N2C(=O)CC(N3CCN(c4nc5ccccc5s4)CC3)C2=O)c1 (stereo not drawn),0.0776
14,Clc1ccc(-c2csc(N3CCSCC3)n2)cc1,-0.0793
15,CC1CCN(C(c2cccs2)c2nnnn2Cc2ccccc2)CC1 (stereo not drawn),0.141
16,CCCC(C)C(=O)Nc1ccncc1 (stereo not drawn),0.0464
17,CS(=O)(=O)N(CC(=O)Nc1cc(Cl)ccc1Cl)c1ccccc1,-0.399
18,COc1cccc(/C=C(/CC(=O)Nc2ccc(N3CCOCC3)cc2)c2nc3ccccc3s2)c1,0.107
19,CCCOC(=O)c1ccc(Nc2cc(C)nc3ncnn23)cc1,-0.0505
20,CCCCCCCOc1ccc(-c2ccc(C#N)cn2)cc1,-0.0858
21,COc1ccccc1CN(C)C(=O)C1(c2ccc(Cl)cc2)CC1,-1.32
22,Cc1ccc(S(=O)(=O)N(CC(=O)NC2CCCCCC2)c2ccccc2F)cc1,-0.0358
23,COc1ccc2c(c1)C(=O)/C(=C/C=C/c1ccccc1)CC2,0.0131

row,Compound,z-score
1,N#CCSc1nc2c(c(=O)n1Cc1ccco1)C1(CCCC1)Cc1ccccc1-2,-1.12
2,COc1cccc(-c2csc(N3CCN(C(=O)Nc4ccc(F)cc4)CC3)n2)c1,-2.33
3,CCC(=O)Nc1cccc(NC(=S)NC(=O)c2ccccc2Cl)c1,-0.385
4,Cc1nn2c(=O)cc(COC(=O)c3ccc(S(=O)(=O)N4CCCCC4)cc3)nc2s1,-0.167
5,CCS(=O)(=O)Nc1ccc(Cc2ccncc2)cc1,0.0973
6,CC1(C)Cc2c(c(=S)nc(-c3ccccc3)n2CCO)CO1,-0.0783
7,COc1ccc(CCNC(=O)c2ccc(Cl)cc2Cl)cc1,-0.0103
8,CC(=O)C1=C(N2CCCCC2)CCC1=O,0.0732
9,CCS(=O)(=O)NCCCc1ccccc1,-0.116
10,O=c1c(F)cn(C2CCCO2)c(=O)n1Cc1ccccc1Cl (stereo not drawn),0.24
11,CCOCCCNC(=O)C(C)NS(=O)(=O)c1ccc(C)cc1 (stereo not drawn),-0.0235
12,CCOc1ccc(-c2cnc3n2CCC3)cc1,-0.153
13,O=C(c1ccco1)N(CCC(c1ccccc1)c1ccco1)Cc1ccccc1 (stereo not drawn),-0.0064
14,COc1ccc(CN2CCN(C(=O)CC(C)C)CC2)cc1OC,0.19
15,CCOc1cccc(/C(O)=C2/C(=O)C(=O)N(CCN3CCOCC3)C2c2cccnc2)c1 (stereo not drawn),0.184
16,CC(=O)c1ccc(NC(=O)C2CCC(C)NC2=O)cc1 (stereo not drawn),-0.0742
17,CCC(C)NC(=O)c1cc(Sc2nnc(C)s2)nc2ccccc12 (stereo not drawn),-0.044
18,COc1ccc(C(=O)c2ccc(N3CCN(C(=O)c4ccc(F)cc4)CC3)c(F)c2)cc1Br,0.178
19,COc1ccc(CCNC(=O)c2cc(-c3ccc(C)cc3O)n[nH]2)cc1OC,-0.117
20,O=C(NN=C1CCCC1)C(=O)Nc1cccc(C(F)(F)F)c1,0.0618
21,COc1ccc(/C=C2\SC(=O)N(CC(=O)NNC(=O)c3ccccc3O)C2=O)cc1,0.0269
22,COc1ccc(N(CC(=O)NC2CCCCCCC2)S(=O)(=O)c2c(C)nn(C)c2C)cc1,-0.281
23,C/C(=N\NC(=O)CN1CCN(S(=O)(=O)c2ccc(C)cc2)CC1)c1cccnc1,0.65

row,Compound,z-score
1,O=C(CC(C(=O)O)c1ccccc1)Nc1ccccc1 (stereo not drawn),-0.274
2,O=C(NCCC1=CCCCC1)c1cnccn1,0.163
3,Fc1ccc2nc(Nc3nc4c(F)cccc4s3)sc2c1,active: 4.98
4,COc1ccc(Sc2ccc(NC(=O)c3ccccc3Cl)cc2C#N)cc1,-0.148
5,c1ccc(Nc2ncnc3c2oc2ccccc23)cc1,0.192
6,COc1ccccc1N1CCN(C(=O)c2cc3cc(Br)ccc3oc2=O)CC1,-0.432
7,Cc1c(NC(=S)N/N=C/c2ccc(N(C)C)cc2)c(=O)n(-c2ccccc2)n1C,-0.203
8,CCOC(=O)CSc1snnc1-c1ccccc1,-1.23
9,COc1ccc(Cl)cc1NC(=O)CN(C)C1CCCCC1,0.225
10,COc1ccc(C)cc1NCC(=O)Nc1ccc(C(C)(C)C)cc1,-0.443
11,Cc1ccc(S(=O)(=O)N(Cc2ccc(F)cc2)Cc2ccco2)cc1,0.274
12,N#Cc1cc2c(nc1SCc1ccncc1)CCC2,0.0476
13,COc1ccc(CCNC(=S)Nc2cc(C)cc(C)c2)cc1,0.195
14,CC1CC(=O)N(c2ccc(NCc3ccc(Cl)cc3)c([N+](=O)[O-])c2)C1=O (stereo not drawn),-0.238
15,CC1C2CC(CC1(C)C)N(C(=O)Nc1ccc3nccnc3c1)C2 (stereo not drawn),-0.155
16,COc1ccc([C@H]2[C@@H](C#N)[C@H](C#N)N3CCCN23)cc1,-0.0861
17,CCCC(=O)NC(=S)Nc1ccc(NC(=O)c2cccs2)cc1,-0.143
18,COC(=O)c1cccc(NC(=O)c2onc3c2CCCC3)c1,-0.228
19,CCCCn1nnnc1SCC(=O)c1cc(Cl)ccc1OC,-1.36
20,CCCCNc1c(N2CCN(C(=O)OCC)CC2)c(=O)c1=O,1.06
21,COc1ccc(CC(=O)NC(C)c2nnc(SCC(=O)Nc3nc(C)cs3)n2C)cc1 (stereo not drawn),0.0325
